Data reported in the supplement of paper PMC11417369.
The list shows a part of the results.

tested on: PfSIP2 AP2 domain 1 (GST-tagged); experiment: gcPBM binding intensity (ln(normalized median fluorescence intensity)); higher = stronger DNA binding
Outline: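 The binding buffer was 1× PBS containing 1% milk, 0.2 mg/ml BSA, 0.5% salmon testes DNA and 0.03% Triton X-100. In it, GST-tagged P. falciparum DNA-binding domains expressed in E. coli were applied for 1 h to an Agilent 4 × 180k array of primer-extended double-stranded 36-bp intergenic genomic probes plus negative controls. Binding intensity, read with Alexa488 anti-GST antibody and a 488 nm scan, is the highest Masliner-normalised natural-log median intensity across replicate spots of either probe orientation.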

Row | Sequence | gcPBM binding intensity (ln)
1 | AACAAAAATAATAATCAAATAAATAAATGAAAACAT [CACACA_negctrl_site456] | 6.86
2 | ATATTACAACATTTTATACACACGTGATTATTAATT [CACACA_site2877] | 7.1
3 | AACATTTTAAAACAGACACACACCAAAAAAAAAAAA [CACACA_site257] | 7.08
4 | CATCCTATTACTTGGTGTACTATTTTATATTGAATA [XGTACX_site1050] | 7.24
5 | ATAAATTTATCCAAGTGTACAAAGCTAACATTTTTT [XGTACX_site4399] | 7.05
6 | GTTTATAAAATAAGAAGTACTTTATGAGAACCATAT [XGTACX_site5789] | 7.09
7 | ATAAACAAGACGCAACAAAGTAGAAATTAAAAATAA [CACACA_negctrl_site345] | 6.73
8 | AAAAATGGAATTATCTGTACATATATAGTTTTTAAA [XGTACX_site5580] | 6.72
9 | TGGTACCTTACTTTTACACACTTTTTTTTTTTTTTT [CACACA_site1557] | 7.19
10 | CCATTTTAAATATGCACACAGATGCACTAACACATT [CACACA_site5099] | 10.5
11 | AATATATACGCATGCGCACACACAAGTGGGAAATTT [CACACA_site1786] | 6.98
12 | TTTTGAGTAGCCTATTGTACGAACTTTTTAAATACA [XGTACX_site1224] | 7.2
13 | CTATCTACATAAACGTGTACCCACAAATAAATAAAT [XGTACX_site5210] | 7.54
14 | TTAACCTTTTGATATTGTACCCATAATCTAATACAA [XGTACX_site769] | 6.97
15 | TTTTTTAAAAAAGTTTTCTGTATTTATATATATATA [CACACA_negctrl_site31] | 8.8
16 | TCATATGTATAAATTAGTACATATTTAATGGATATA [XGTACX_site3298] | 6.95
17 | AAATGAAAATAAAGCAACAGAAATATAATGTATTAT [GTGCAC_negctrl_site508] | 6.87
18 | TTATGTCATAAATGCACACATATATATATACATATA [CACACA_site1588] | 7.41
19 | AGGCACGTGTTATATACACACATAATCAAATAAACT [CACACA_site7852] | 7.2
20 | ACATTTTATACGATAAAATGTATAAGATTATGAAGA [TGCATGCA_negctrl_site476] | 6.9
21 | AAAATAATAACATTGTGTACATAAAAAGAAAACCTT [XGTACX_site840] | 7.24
22 | TATGAATGGTTAAGTACACACATATTAATATATGTA [CACACA_site3490] | 6.98

Row | Sequence | gcPBM binding intensity (ln)
23 | AAATTAAAATAATAATTCTACAAATTAATTTATCAT [XGTACX_negctrl_site44] | 6.69
24 | TATCAAATGTATATATGTACTTATATTTTTTTTATA [XGTACX_site1501] | 6.92
25 | AATATATTTTCCTGCAAACACACATATAAATGTGTA [CACACA_site532] | 6.96
26 | TATATTACAAAAAGTACACACATAAATAAATACATA [CACACA_site975] | 7.17
27 | ATGCTCAAAAGATATGCATGTACAAATATATGAAAT [TGCATGCA_site592] | 7.02
28 | ACATACATACACCCACGTACGTACCGAAACACCACC [XGTACX_site1212] | 7.49
29 | GATATAATGTGTTTGGTATTCTTGATAGATAGTTTT [CACACA_negctrl_site1711] | 6.99
30 | ATGATGTCTTTATATTGTACATATATGAAGACGTTA [XGTACX_site7751] | 7
31 | ACTTCAAAAATAAACTGTACGTAAAAAAAAAAAAAA [XGTACX_site795] | 7.77
32 | TTTCTTTTTTTTTTTGTATATTAAATCTAAAAAGGA [TGCATGCA_negctrl_site431] | 6.98
33 | TTTAAATAAAATATTACACACTTAGAAAAATATATA [CACACA_site3663] | 6.78
34 | TTTCGTAAAATGAAATGTACTCAAAAGTAAATATAA [XGTACX_site214] | 6.88
35 | TGAGAGAGAAACGTAGTGCATAAAATCAAATTTAGA [GTGCAC_site9737] | 7.82
36 | GGTTCATATATTAACACACACATACATATTATATAT [CACACA_site2937] | 7.11
37 | AATAATCATAGTTCTACACACCTATATTGCAAAAAA [CACACA_site867] | 7.18
38 | TTATAAAAAATTTTAGTGCATATATGATTTATATAT [GTGCAC_site9831] | 8.21
39 | TAATATGTATTTACAAGTACTAACAAAATATTAAAA [XGTACX_site3379] | 6.96
40 | TACAAAAATAAATGTTGTACTATTATTTATTTCGAT [XGTACX_site1048] | 6.99
41 | TTAAAGATATACAAAAGTACTTTTTTTTTCGTCATT [XGTACX_site384] | 7.03
42 | TTCATTAAATAGAACAAAATAATAATATAACAACAA [GTGCAC_negctrl_site116] | 7.27
43 | CCATATCTTTTTTGCACACACTACAATAAAACAAAA [CACACA_site4995] | 8.19
44 | TGATACTTATGATAAATACACACTTGAAATTAAGGA [CACACA_site1152] | 7.01

Row | Sequence | gcPBM binding intensity (ln)
45 | TATATAGCATATTTCACACACACATAATGAATATTA [CACACA_site3546] | 7.19
46 | ATGATATACGTAAACACACAAATAAAAAAAATTTAT [CACACA_site7544] | 7.04
47 | TTTTTTAGTTTTTAGTGTACATAAATAAATAAATAA [XGTACX_site2843] | 7.25
48 | TTAAAAAGAAAGTTCACACACATATAGATGACGGAA [CACACA_site7268] | 6.9
49 | ATTTATTTATATAATACACACAAATATCTTAATGAA [CACACA_site6064] | 6.75
50 | ATTTTTTCTAATGGGTGTACTGAAACGTATTTTATT [XGTACX_site6573] | 7.2
51 | TTATTTTTTCTTTTTTTTCTTACCACAAAAATGGAT [CACACA_negctrl_site362] | 6.79
52 | ATTTGTAATTATTAAACACACACAAAATATATATAA [CACACA_site8804] | 7.09
53 | TTGTGATTATATAATCGTACATAATTTTAATCACAC [XGTACX_site398] | 7.04
54 | AAAAAAAAAAAAAACACACACATATCTATAATATAT [CACACA_site7481] | 7.07
55 | GAATATAAACATATTACACACATCTATATGTACTTT [CACACA_site8582] | 6.89
56 | CAAAACAAAGTTGCCGCACACAGATACGCACCCAAG [CACACA_site3455] | 11.9
57 | GTAATATTATAATATACACACATAGAATATAAATAT [CACACA_site6333] | 7.23
58 | TTCAAGATTTATTATACACACATATTAATATATATA [CACACA_site573] | 7.38
59 | AAAATACACCAACACACACACATATATATATATATT [CACACA_site4149] | 7.27
60 | AGAATAAAAAGGAACACACACACACGCATATAAATA [CACACA_site7659] | 6.99
61 | TTTATTTAATTCATTGCATGTAATTTTTGTGTCCAC [TGCATGCA_site677] | 6.81
62 | TTTTATGATAATTTTGCACACACTTAGGAAAAATTA [CACACA_site1556] | 7.36
63 | TTAAAAAAAAATGGCACACATTTTAATTTTATGTTT [CACACA_site5035] | 6.73
64 | TAATATATATGTATGGCACACACGGATAAATATATA [CACACA_site930] | 7.04
65 | AAAAAAAATATGAAAACACACATATATAAATAAATA [CACACA_site113] | 6.89
66 | AACAAAATAAGACACACACACAAATGTACCTATATA [CACACA_site7189] | 7.07

Row | Sequence | gcPBM binding intensity (ln)
67 | TCTTTTTTAAATAAAAGTACAAAAAAAAATAAAAAA [XGTACX_site2670] | 6.93
68 | CAAACAAATATATGTTGTACTTATTATATATACATA [XGTACX_site2998] | 6.95
69 | TTATCATATGTATGCATACACACAAAAAATTATATA [CACACA_site397] | 7.11
70 | ATGTAATTCTTTTACTTTTTTTTTTTTTTTTTTTTT [CACACA_negctrl_site979] | 8.15
71 | ATAAATGAGCCATATTAAATCCGTTACACGGGTGTG [CACACA_negctrl_site1368] | 6.54
72 | AACGGGTAATGCACAAAAAAAAAAAAATAAAATAAA [TGCATGCA_negctrl_site474] | 7.56
73 | AAATTATTTTGTTATCATTATATATAGATTGAATAT [XGTACX_negctrl_site165] | 6.95
74 | TTCTTTTAAATTAGCTGTACGGTTTTCTACATGCAT [XGTACX_site356] | 7.02
75 | TACAATATATTTATAGTGCATATTACTTTTAACTTT | 8.41
76 | TCGTAATAATATAAATGTACTTTATTAATTAAAAGA [XGTACX_site3416] | 7.08
77 | ACATTGCACCCGTGCACACATAGAAAAATAATTCTT [CACACA_site409] | 12.2
78 | GTAGTCCAAAAAAAGCGTACACAGAAAAAAAAAAAA [XGTACX_site4273] | 7.32
79 | ATAACAAAAATCCTTGTGCACTATTTTAATAGAGTC | 10
80 | CATTATGATTAAATATGTACATATTATTATATAAAT [XGTACX_site2477] | 6.92
81 | TACATCTTACTACTTATAATATAATATAGTATGAAT [TGCATGCA_negctrl_site8] | 6.99
82 | ATATAATTTATGTGCACACACTCCTATTTTTAGCTT [CACACA_site50] | 8.99
83 | AAAAAGTAAAAGAAAGCACACACACCGGTATATATG [CACACA_site9281] | 6.67
84 | AAAAAAAATTTTATCTGTACACATTTTTTTCTTTTT [XGTACX_site4229] | 6.78
85 | AATAATAAAATAAAAGTGCATTAATTATAATTCTTT [GTGCAC_site9491] | 8.16
86 | AATTATAATAATAATAGTACATAAGTATATAAATAA [XGTACX_site2400] | 7.08
87 | TCTTTCTAAATCTTACAAATTACTAAAATATTTATA [CACACA_negctrl_site87] | 7.04
88 | GAGGAAAAAAAAAAAAGTACATTATATAAGAAAATT [XGTACX_site2610] | 6.81
